Measurements reported in paper PMC4336329 (PLoS ONE, 2015).
The campaign covered roughly 310,000 compounds. About 14,000 (4.5%) showed an effect of 50% or more. The effect is printed as a negative number. The list shows a part of the results.

These compounds were tested against human ether-à-go-go-related gene (hERG) potassium channel (human, UniProt Q12809) (assay: primary screen, population patch clamp on CHO cells stably expressing hERG).
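Further: peak tail current of the secondary pulse compared with the same well before compound.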

Chain of human ether-à-go-go-related gene (hERG) potassium channel (Q12809 whole entry, looked up): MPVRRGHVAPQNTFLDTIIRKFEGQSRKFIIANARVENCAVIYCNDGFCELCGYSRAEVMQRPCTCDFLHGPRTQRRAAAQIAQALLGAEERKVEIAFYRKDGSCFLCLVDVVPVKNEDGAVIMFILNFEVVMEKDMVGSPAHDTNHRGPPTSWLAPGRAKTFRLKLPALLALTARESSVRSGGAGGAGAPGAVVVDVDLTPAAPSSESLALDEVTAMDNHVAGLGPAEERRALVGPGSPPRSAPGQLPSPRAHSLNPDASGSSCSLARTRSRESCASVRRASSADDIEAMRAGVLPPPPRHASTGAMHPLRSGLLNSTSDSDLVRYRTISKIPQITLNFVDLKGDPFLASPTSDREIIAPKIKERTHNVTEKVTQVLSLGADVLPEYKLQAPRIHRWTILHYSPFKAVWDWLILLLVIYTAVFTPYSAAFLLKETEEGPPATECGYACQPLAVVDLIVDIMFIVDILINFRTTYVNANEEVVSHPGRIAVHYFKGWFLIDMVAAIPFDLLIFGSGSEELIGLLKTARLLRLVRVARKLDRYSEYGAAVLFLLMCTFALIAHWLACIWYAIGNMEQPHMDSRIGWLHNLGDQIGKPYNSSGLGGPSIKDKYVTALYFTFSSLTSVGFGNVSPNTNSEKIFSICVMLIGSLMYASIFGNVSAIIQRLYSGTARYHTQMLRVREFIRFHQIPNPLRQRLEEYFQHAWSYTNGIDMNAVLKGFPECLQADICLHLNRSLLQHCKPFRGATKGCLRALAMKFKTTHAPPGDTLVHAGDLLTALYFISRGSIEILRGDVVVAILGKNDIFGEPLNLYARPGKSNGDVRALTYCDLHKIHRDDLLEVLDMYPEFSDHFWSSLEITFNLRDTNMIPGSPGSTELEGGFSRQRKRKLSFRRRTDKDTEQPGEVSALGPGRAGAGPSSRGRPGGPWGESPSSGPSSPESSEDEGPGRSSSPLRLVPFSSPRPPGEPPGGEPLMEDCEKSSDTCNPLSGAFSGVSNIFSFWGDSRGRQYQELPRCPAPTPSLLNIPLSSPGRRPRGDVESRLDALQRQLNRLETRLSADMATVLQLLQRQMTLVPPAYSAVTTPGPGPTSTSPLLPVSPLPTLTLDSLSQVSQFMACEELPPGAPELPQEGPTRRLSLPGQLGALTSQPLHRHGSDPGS

Point of comparison: `CCOc1ccc(NC(=O)CCN2C(=O)C3CCCCC3C2=O)cc1OCC` (stereo not shown), “hERG current change (%, negative = inhibition) at 10uM” value 4.35%. Against it:
- CCN1C(=O)c2ccccc2S(=O)c2ccc(C(=O)N3CCN(C(=O)c4ccco4)CC3)cc21 (stereo not shown) — lower, -10.6%
- O=C(Oc1ccc(-c2nccc(-c3ccccn3)n2)cc1)c1cccc(C(F)(F)F)c1 — lower, -0.542%
- O=c1[nH]c(=O)n(CC2CCCO2)c(O)c1/C=C1\C=Nc2ccccc21 (stereo not shown) [22416389] — lower, 0.635%
- Cc1cccc(-c2nc(CSCC(=O)N3CCN(Cc4ccc5c(c4)OCO5)CC3)c(C)o2)c1 — lower, -22.2%
- Cc1c(NC(=O)c2ccc(NC(=O)C3CC3)cc2)cccc1C(=O)O — higher, 12.5%
- Cc1cccc(C)c1NC(=O)CC(NCCc1ccccc1)C(=O)O (stereo not shown) — lower, -1.83%
- O=C(N/N=C/C(Br)=C/c1ccccc1)C(O)c1ccccc1 (stereo not shown) — lower, -3.43%
- CCN1CCN(CCCNC(=O)c2ccc3c(=O)n(CCc4ccccc4)c(=O)[nH]c3c2)CC1 — higher, 15%
- COCCCNC(=O)COc1ccc(Br)cc1Cl — lower, -7.88%
- CCN1C(=NCCc2c[nH]c3ccccc23)N[C@@H](c2ccccc2)[C@H](C(=O)OC)[C@H]1C — higher, 7.52%
- COc1cccc(C2c3c(oc4ccc(F)cc4c3=O)C(=O)N2CCCN2CCOCC2)c1 (stereo not shown) — lower, -31.5%
- O=C(CN1C(=O)C(c2ccc(F)cc2)=NC12CCCC2)Nc1ccc(F)cc1 — lower, -5.39%
- COc1cccc2cc(C(=O)NCCc3ccccc3)c(=O)oc12 — higher, 17.4%
- CCC1(C)Cc2c(sc3nnn(CC(=O)Nc4ccccc4C)c(=O)c23)CO1 (stereo not shown) — lower, -58.4%
- CCOc1ccccc1NC(=O)C1C2CCC3C(CCC21)C3(Cl)Cl (stereo not shown) — lower, -13.4%
- COc1ccc(NC(=O)CCc2nc(-c3ccc(C)cc3)no2)c(OC)c1 — lower, 4.23%
- CCn1c(CNc2ccc(C)cc2C)nnc1SCC(=O)N1CCCc2ccccc21 — lower, -20.3%
- Cc1cc(C(=O)CCC(=O)NCc2ccccc2F)c(C)s1 — higher, 8.28%
- Cc1cc(C(F)F)n2ncc(C(=O)N3CCC(C(N)=O)CC3)c2n1 — higher, 16.1%
- Cc1ccc2c(cnn2C(=O)CCC(=O)NCc2cccc(Br)c2)c1 — higher, 9.82%
- Cc1ccc(S(=O)(=O)c2ncccc2N)cc1 — higher, 12.4%
- CC(=O)N1CCN(CC(=O)O)CC1 — lower, 3.69%
- COc1ccc(/C(CC2OC(=O)c3ccccc32)=N\NC(N)=O)cc1 (stereo not shown) — lower, 0.79%
- CCOC(=O)N1CCN(S(=O)(=O)N2CCCC(C(=O)NCc3cccc(OC)c3)C2)CC1 (stereo not shown) — lower, -19.5%
- COC(=O)c1sccc1-c1ccc(C(=O)Nc2ccccc2)o1 — lower, -23.1%
- COC(=O)c1cccnc1NC(=S)NC1CCCCC1 — higher, 15.2%
- COc1ccc(C(=O)NC2CCCc3c2cnn3-c2cccc(C)c2C)c(OC)n1 (stereo not shown) — lower, -29.9%
- Cc1cc(C)n2nnnc2c1C#N — higher, 16.1%
- CCOC(=O)c1cccc(NC(=O)c2ccco2)c1 — lower, -28.6%
- COc1cccc(CNC(=O)CSc2nnc3c(n2)[nH]c2ccc(OC)cc23)c1 — lower, 3.05%
- COc1ccccc1NC(=O)CSc1nc(O)cc(=O)n1C — higher, 9.27%
- NS(=O)(=O)c1ccc(CCNC(=S)Nc2ccccc2)cc1 — lower, -10.9%
- O=[N+]([O-])c1ccc(C2[C@H]3C(c4ccccc4)=NC4(CCCCC4)N23)cc1 (stereo partly shown) — higher, 30.5%
- Cc1ccccc1/C=N/Nc1ccc(Cl)nn1 — higher, 24.1%
- CCN(CC)CCN1C(=O)c2oc3ccccc3c(=O)c2C1c1ccccc1 (stereo not shown) — lower, -18.9%
- Fc1ccccc1-c1nnc2c3ccccc3nc(N3CCOCC3)n12 — lower, -9.92%
- CCOC(=O)C(=CNc1cc(C)ccc1[N+](=O)[O-])C(=O)OCC — lower, -12.5%
- O=C(Cn1c(=O)[nH]c2ccccc2c1=O)Nc1ccc2c(c1)OCO2 — higher, 14.5%
- COc1ccc(S(=O)(=O)N(C)CC(=O)N2CCN(c3ccc(F)cc3)CC2)cc1OC — lower, -44%
- CCCCc1nc(Cl)c(CO)n1Cc1ccc(-c2ccccc2-c2nn[n-]n2)cc1.[K+] — lower, -0.856%
- CCOc1ccc(-c2nc[nH]c2[N+](=O)[O-])cc1 — higher, 27%
- CCOCCCNc1nc2c(C)cccn2c(=O)c1/C=C1\SC(=S)N(CC(C)C)C1=O — higher, 24.4%
- CCOc1cc(C=O)cc(Br)c1OCC(N)=O — lower, 2.71%
- O=C(c1ccco1)N1CCN(CC(O)COc2ccc(Br)cc2)CC1 (stereo not shown) — lower, -72.6%
- COc1ccc(Nc2nc3cc(C)ccc3cc2C#N)cc1 — lower, -32.4%
- COc1ccccc1OCCC(=O)OCC(=O)NCc1ccccc1 — lower, -0.671%
- C=CCOc1cccc(C(=O)N2CCC(CCC(=O)NC3CC3)CC2)c1 — lower, -9.51%
- CCOC(=O)c1c(NC(=O)CSc2nc3ccccc3o2)sc(C)c1C — higher, 19.4%
- CCOc1ccc(CCNC(=O)c2ccc3nc(CC)c(CC)nc3c2)cc1 — higher, 15.3%
- CCOC(=O)CSc1nnc(Cn2nnc(-c3ccccc3)n2)n1CC — lower, -10.4%
- COc1ccccc1-c1sc2ccccc2c1-c1ccc2c(c1)OCCO2 — higher, 6.94%
- CCOC(=O)C(CCOc1cccc(CC)c1)C(=O)OCC — higher, 6.01%
- COc1ccccc1CNC(=O)COC(=O)[C@H](Cc1c[nH]c2ccccc12)NC(=O)c1cccs1 — lower, -6.21%
- COc1ccc(NC(=O)CSc2nc3ccc(OC)cc3[nH]2)cc1 — lower, 0.906%
- CC(C)c1ccc(CNC(=O)C(=O)Nc2nccs2)cc1 — higher, 34.9%
- Cc1ccc(S(=O)(=O)CCc2nc3ccccc3[nH]2)cc1C — lower, -2.03%
- O=[N+]([O-])c1ccc(COc2ccc(CNc3ccccc3)cc2)cc1 — lower, 4.33%
- CC(NC(=O)C(=O)NCCN1CCN(C(=O)c2ccc([N+](=O)[O-])cc2)CC1)c1ccccc1 (stereo not shown) — lower, -75.1%
- COc1ccc(NCc2nnc(SCC(=O)NNC(=O)c3ccc(C)cc3)n2C)cc1 — higher, 11.3%
- COn1cnnc1-c1ccccc1 — lower, 1.1%
- Cc1ccc2c(CN3CCN(Cc4ccccc4)CC3)cc(=O)oc2c1 — lower, -78.9%
- O=C(Nc1ncccc1O)c1cccc(S(=O)(=O)N2CCCc3ccccc32)c1 — lower, -10.3%
- COc1ccc(N2CCN(S(=O)(=O)c3cccc(C(F)(F)F)c3)CC2)cc1 — lower, -1.33%
- Cc1ccc(/C=N/Nc2nc(N3CCOCC3)nc(N3CCOCC3)n2)o1 — higher, 4.82%
- CCN1CCN(C(=O)CN(C)S(=O)(=O)c2cc(C)ccc2OC)CC1 — higher, 22.4%
- CCCCC(=O)Nc1ccc(C(=O)Nc2ccc(S(=O)(=O)N3CCCC3)cc2)cc1 — higher, 10.2%
- C/C=N/NC(=O)CCCC(=O)N/N=C/C — higher, 21.9%
- O=C(NC1CCCCC1)C1CCC(=O)N(C2CC2)C1 (stereo not shown) — higher, 25.9%
- CCOC(=O)c1ccc2c(c1)N(Cc1ccccc1C)C(=O)c1ccccc1S2=O (stereo not shown) — lower, -23.8%
- COc1ccccc1N1CCN(Cc2ccc(Br)cc2)CC1.O=C(O)C(=O)O — lower, -70.3%
- Cc1nn(CCCC(=O)NCCCN2CCN(C)CC2)c(=O)c2c1sc1ccccc12 — higher, 17.5%
- COCc1ccc(-c2c(-c3cc(OC)cc(OC)c3)oc(=O)c3cc(OC)c(OC)cc23)cc1 — lower, 3.27%
- O=C(/C=C/c1ccc2c(c1)OCCO2)N1CCN(c2ccc(F)cc2)CC1 — higher, 9.55%
- CN1CCc2c(sc3c2C(=O)NC(/C=C\c2ccccc2)N3)C1 (stereo not shown) — lower, -58.6%
- CCn1ccnc1CNC(=O)c1ccc(OC2CCN(C(=O)COC)CC2)cc1 — higher, 15.2%
- Cc1ccc(NC2CCCN(C(=O)C3CCCC3)C2)cc1C (stereo not shown) — higher, 11.3%
- O=c1c2cn[nH]c2nc(SCc2ccccc2F)n1-c1ccc(Br)cc1 — lower, -24.2%
- COc1ccccc1CNC(=O)CCNS(=O)(=O)c1ccc2[nH]c(=O)oc2c1 — higher, 11.3%
- CCCCOC(=O)Nc1nnc(Cc2ccc(Cl)cc2)s1 — higher, 15.5%
- CCN(CC(=O)Nc1sc2c(c1C#N)CCCC2)Cc1nc2ccccc2c(=O)[nH]1 — lower, -8.12%
- Fc1ccc2c(c1)C(c1ccc(N3CCOCC3)cc1)=NNC(c1cccs1)=N2 — lower, -1.96%
- Nc1nc(SCc2nc3scc(-c4cccs4)c3c(=O)[nH]2)n[nH]1 — higher, 18.9%
- O=C(Nc1nc(-c2ccco2)c(-c2ccco2)s1)c1cnccn1 — lower, 3.8%
- CCCCn1nnnc1SCC(=O)NCc1ccco1 — higher, 10.6%
- COc1ccc(NC(=O)c2coc3ccccc23)cc1OC — higher, 6.21%
- CN(c1ccccc1)S(=O)(=O)c1ccc(C(=O)OCC(=O)NCc2ccco2)cc1 — lower, -12.2%
- C#Cc1ccc([C@@H]2C=C(C(=O)OCC=C)O[C@H](OCc3ccc(CO)cc3)C2)cc1 — lower, -7.01%
